{"source": "PubChem BioAssay AID463173", "about": "(ICCB-Longwood Screening Facility, Harvard Medical School, 2010)", "note": "In all, about 52,000 compounds went through this assay and about 4,300 (8.3%) were called active. Rule as the data show it: active = survival mostly below about 52% (no sharp cut-off); inactive = mostly above about 56%. The list shows a part of the results."}
{"test_system": "DeltatarO mutant", "assay": "growth inhibition of S. aureus wild type versus tarO mutant, primary screen, teichoic acid synthesis inhibitors, RN4220, OD600 (AID 463173)", "conditions": "OD600, 18 h, hits give low values, screened at 18.75 µg/mL (by protocol)"}
{"smiles": "Cc1ccc2cccc(NC(=O)c3ccc(OC(C)C)cc3)c2n1", "survival": "inactive: 95%"}
{"smiles": "CCc1ccccc1NC(=O)Cn1cc(S(=O)(=O)N2CCCC2)c(S(=O)(=O)N2CCCC2)c1", "survival": "inactive: 71%"}
{"smiles": "O=C(c1ccco1)N(Cc1cccnc1)c1nc2c(F)cc(F)cc2s1", "survival": "inactive: 94%"}
{"smiles": "COc1ccccc1NC(=O)CSc1nncn2c1cc1sccc12", "survival": "inactive: 92%"}
{"smiles": "O=C(NCCNCc1ccco1)c1ccccc1", "survival": "inactive: 112%"}
{"smiles": "C=CCn1c(=N)c(C(N)=O)cc2c(=O)n3ccccc3nc21", "survival": "inactive: 114%"}
{"smiles": "CCOc1ccc(-c2nn(-c3ccccc3)cc2C2NC(=O)NC(C)=C2C(=O)OC(C)C)cc1", "note": "(stereo not drawn)", "survival": "inactive: 64%"}
{"smiles": "CSc1nc(Nc2ccc(F)cc2)cc(-c2ccccc2)n1", "survival": "active: -5%"}
{"smiles": "CC(C)(C)OC(=O)N1CCC(c2c(C(=O)NCCN3CCc4ccccc4C3)cnn2-c2ccc(F)cc2)CC1", "survival": "inactive: 68%"}
{"smiles": "CCCCOc1ccc(C(=O)Nc2ccc(-c3cc4ccccc4oc3=O)cc2)cc1", "survival": "inactive: 81%"}
{"smiles": "CC(C)c1ccc(OCC(=O)NCCS(=O)(=O)N2CCN(c3ccc(F)cc3)CC2)cc1", "survival": "inactive: 94%"}
{"smiles": "CN(CCC(N)=O)Cc1ccccc1", "survival": "inactive: 75%"}
{"smiles": "CS(=O)(=O)N1CCSC1c1ccc(Cl)cc1Cl", "note": "(stereo not drawn)", "survival": "inactive: 109%"}
{"smiles": "COc1ccccc1C(=O)N1c2ncnn2C2(CCCCC2)[C@@H]2CCCC[C@@H]21", "survival": "inactive: 74%"}
{"smiles": "COc1ccc(Cn2c(C(=O)O)c(CNC3CCCC3)c3ccc(OC)cc32)cc1", "survival": "inactive: 73%"}
{"smiles": "CCn1c(=O)cc(SCC(=O)NCc2cccc(Cl)c2)c2ccccc21", "survival": "active: 38%"}
{"smiles": "CCN1C(=O)c2ccccc2Sc2ccc(NC(=O)N3CCN(c4cc(C)ccc4C)CC3)cc21", "survival": "inactive: 52%"}
{"smiles": "CCOC(=O)c1ccc(NC(=O)C(CC)Sc2nc3ccncc3[nH]2)cc1", "note": "(stereo not drawn)", "survival": "inactive: 128%"}
{"smiles": "CCOC(=O)Cc1c(C)nc2cc(C)nn2c1C", "survival": "inactive: 98%"}
{"smiles": "Cc1cc(C)nc(-n2nc(C)c3c2N(Cc2ccccc2)C(=O)CC3c2ccc(Cl)cc2)n1", "note": "(stereo not drawn)", "survival": "inactive: 60%"}
{"smiles": "Cc1ccc2c(=O)cc(C(=O)Nc3ccc(S(=O)(=O)Nc4onc(C)c4C)cc3)oc2c1C", "survival": "inactive: 79%"}
{"smiles": "COC(=O)C1C(=O)NC(S)=C(C#N)C1c1ccccc1Cl", "note": "(stereo not drawn)", "survival": "inactive: 89%"}
{"smiles": "O=C(CSc1oc(-c2ccccc2)nc1S(=O)(=O)c1ccc(Cl)cc1)c1ccccc1", "survival": "active: 44%"}
{"smiles": "Cc1ccc(-n2cc(C(=O)Oc3ccc(F)cc3)c3ccccc3c2=O)cc1", "survival": "inactive: 81%"}
{"smiles": "O=C(CC1C(=O)N(c2ccc(F)cc2)C(=O)N1Cc1ccc2c(c1)OCO2)Nc1ccc(Cl)cc1", "note": "(stereo not drawn)", "survival": "active: 43%"}
{"smiles": "CC(C)c1ccc(NC(=O)c2cc(S(=O)(=O)N(C)C3CCCCC3)ccc2F)cc1", "survival": "inactive: 55%"}
{"smiles": "CCCCn1cnc2cc(NCc3ccc(OCC)cc3)ccc21", "survival": "active: 11%"}
{"smiles": "CCOc1ccc(NC(=O)c2cc(S(=O)(=O)N3CCc4ccccc43)ccc2F)cc1", "survival": "inactive: 88%"}
{"smiles": "Cc1ccc(S(=O)(=O)N(CCC#N)Cc2ccccc2)cc1", "survival": "inactive: 82%"}
{"smiles": "Cc1oc(C(=O)O)cc1CN1CCCC1", "survival": "inactive: 100%"}
{"smiles": "CCN(C(=O)Cn1c(=O)n(-c2ccccc2)c(=O)c2ccc(C(=O)NCc3ccc4c(c3)OCO4)cc21)c1cccc(C)c1", "survival": "inactive: 84%"}
{"smiles": "O=C(O)C1CCN(S(=O)(=O)c2cccc3nsnc23)CC1", "survival": "inactive: 87%"}
{"smiles": "Cc1c(Cl)cccc1NS(=O)(=O)c1ccc(-c2cnc(C3CC3)o2)cc1", "survival": "inactive: 124%"}
{"smiles": "C=CCNC(=O)Cn1c(-c2ccc(F)cc2)nc2ccccc21", "survival": "inactive: 82%"}
{"smiles": "Cc1cc(C)cc(OCC(=O)Nc2c(C(=O)c3ccccc3)oc3ccccc23)c1", "survival": "inactive: 92%"}
{"smiles": "O=C(CCn1c(=O)c2cccn2c2cccnc21)Nc1ccccc1C(F)(F)F", "survival": "inactive: 85%"}
{"smiles": "CCC(=O)N1c2ccccc2CC1C(=O)NCc1cc(OC)ccc1OC", "note": "(stereo not drawn)", "survival": "inactive: 67%"}
{"smiles": "COc1ccc(-c2nc3c(c(SC)n2)Cc2c(CO)cnc(C)c2O3)cc1", "survival": "inactive: 83%"}
{"smiles": "CCn1c(=O)c2cc(C(=O)NCCCN3CCN(C)CC3)sc2c2ccccc21", "survival": "inactive: 110%"}
{"smiles": "Cc1ccccc1NC(=O)c1c(C)oc2ccc(O)c(CN3CCOCC3)c12", "survival": "inactive: 74%"}
{"smiles": "O=C(CSc1n[nH]c(-c2ccccc2Cl)n1)NCc1ccc(F)cc1", "survival": "active: -4%"}
{"smiles": "COC(=O)c1sc2nc(C)cc(C)c2c1N", "survival": "inactive: 87%"}
{"smiles": "O=C(CCC(=O)c1ccc(F)cc1)Nc1ccc(Cl)cc1", "survival": "inactive: 94%"}
{"smiles": "O=C(c1ccc2c(c1)N(Cc1ccccc1F)C(=O)c1ccccc1S2(=O)=O)N1CCN(c2ccccn2)CC1", "survival": "inactive: 79%"}
{"smiles": "CCOc1ccc(CNC(=O)C2CCCCN2S(=O)(=O)c2ccc(F)cc2)cc1OC", "note": "(stereo not drawn)", "survival": "inactive: 70%"}
{"smiles": "CCOC(=O)c1cc2c(ccn2C)n1Cc1ccc(OC(F)(F)F)cc1", "survival": "inactive: 96%"}
{"smiles": "CC1CCCN(c2nc3c(-c4ccc(Cl)cc4)nnn3c3ccccc23)C1", "note": "(stereo not drawn)", "survival": "inactive: 87%"}
{"smiles": "Cc1cc(Cl)ccc1NS(=O)(=O)c1c(C(=O)N2CCC(C)CC2)c(C)n(C)c1C", "survival": "inactive: 55%"}
{"smiles": "O=C(Cn1c(-c2ccccc2)noc1=O)NCc1ccccc1", "survival": "inactive: 102%"}
{"smiles": "Cc1ccc(-c2csc(-c3cc4c([nH]c3=O)CC(c3ccccc3)CC4=O)n2)cc1", "note": "(stereo not drawn)", "survival": "inactive: 86%"}
{"smiles": "COc1ccc2oc(=O)c(-c3nnc(-c4ccc(C)cc4)o3)cc2c1", "survival": "inactive: 138%"}
{"smiles": "Cc1cc2c(cc1S(=O)(=O)Nc1ccc(OC(F)(F)F)cc1)OCC(=O)N2", "survival": "inactive: 49%"}
{"smiles": "CCN(CC)S(=O)(=O)c1ccc2c(c1)N(CC(=O)NCc1ccccc1)C(=O)C1CCCCN21", "note": "(stereo not drawn)", "survival": "inactive: 73%"}
{"smiles": "COc1ccc(S(=O)(=O)NCc2nc3nc(C)cc(C)n3n2)cc1", "survival": "inactive: 89%"}
{"smiles": "O=C(NCCCN1CCN(c2cccc(Cl)c2)CC1)c1sc2ncccc2c1-n1cccc1", "survival": "inactive: 70%"}
{"smiles": "Cc1ccc(-c2nc(CS(=O)(=O)CC(=O)Nc3ccc(Br)cc3F)c(C)o2)cc1", "survival": "inactive: 77%"}
{"smiles": "CCC(=O)Oc1c(Sc2ccc(Cl)cc2)c(C)nn1-c1ccccc1", "survival": "active: 13%"}
{"smiles": "CCOc1ccc(NC(=O)CSC2=Nc3ccccc3C3=NC(CCC(=O)NCc4ccco4)C(=O)N23)cc1", "note": "(stereo not drawn)", "survival": "inactive: 67%"}
